# In paper PMC7819943, “Rice protein-binding microarrays: a tool to detect cis-acting elements near promoter regions in rice”:
# This is one part of the list.
# Biological target: T1, OsWOX13 (Oryza sativa, UniProt Q5QMM3 1-267)
# T1 sequence: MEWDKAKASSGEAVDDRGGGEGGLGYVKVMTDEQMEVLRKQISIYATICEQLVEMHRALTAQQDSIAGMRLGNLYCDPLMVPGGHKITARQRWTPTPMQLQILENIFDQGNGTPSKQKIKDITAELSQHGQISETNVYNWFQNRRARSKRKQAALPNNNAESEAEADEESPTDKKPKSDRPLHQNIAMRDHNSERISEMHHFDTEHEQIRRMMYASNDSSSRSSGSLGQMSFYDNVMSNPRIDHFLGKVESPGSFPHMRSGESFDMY
# Assay: protein-binding microarray (RPBM); PBS, 2% BSA, 51.3 ng/ul salmon testes DNA, 50 uM zinc acetate, 200 nM TF, 25 C, 1 h; high values mean tight binding
# Conditions: protein: recombinant; tags: N-terminal polyhistidine and DsRed monomer fusion (pET32a); label: CyDye5-dUTP incorporated in the synthesized complementary strand; 3' TTTTT single-stranded linker to array surface; dsDNA, one strand shown
# Method in brief: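 An Axon 4000B scanner gave the binding signal as per-feature fluorescence intensity in arbitrary units. This followed washing of a custom Agilent array that had been incubated for 1 h at 25 °C with 200 nM protein in PBS, 2% BSA, salmon testes DNA and 50 µM zinc acetate. The proteins were transcription factors fused at the N-terminus to polyhistidine and DsRed, expressed in E. coli BL21-CodonPlus and purified on Ni–NTA.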
row,Sequence,binding signal
1,AACAATTATCCACAAATGGACAGACATCATCATCGGTCACCGGAGTCACCTAGTGCAG,5760 fluorescence intensity (a.u.)
2,ATGTAATAACAATAAAATTATTATTTATAATTTTGTTTCACGGAGTCACCTAGTGCAG,11200 fluorescence intensity (a.u.)
3,ATAAACCACTAAATTTAGTAAACGAGACAATAATATGTCACGGAGTCACCTAGTGCAG,5030 fluorescence intensity (a.u.)
4,AATTTAGATTATTTACCACCTAATTTGCGTGCCTCAACTTCGGAGTCACCTAGTGCAG,15200 fluorescence intensity (a.u.)
5,CGGGCCGCCGTGATTGGTGCCGGTTCGAGGCGCCGTGATTCGGAGTCACCTAGTGCAG,12400 fluorescence intensity (a.u.)
6,TAGGTGATGATTTCGTGTTTTGGTCCTGTATTTATGTTGGCGGAGTCACCTAGTGCAG,4820 fluorescence intensity (a.u.)
7,GGGGATTAGGAGTTTATTGATGATGAGATTAAGATAGAAACGGAGTCACCTAGTGCAG,12500 fluorescence intensity (a.u.)
8,TGCTAATGATGGATTAATTAGGCTTAATAAATTCGTCTCGCGGAGTCACCTAGTGCAG,54700 fluorescence intensity (a.u.)
9,CAGGCTGATTGGTTCTATGCCCCTGTTTACACTACTTGTGCGGAGTCACCTAGTGCAG,38500 fluorescence intensity (a.u.)
10,CACCAATAAAATCAATCATTATTTGAAGACTGGTTATATACGGAGTCACCTAGTGCAG,18600 fluorescence intensity (a.u.)
11,GATAATTAAGTTGGATATTAGGTCCATCGGCCAGAAATCTCGGAGTCACCTAGTGCAG,7420 fluorescence intensity (a.u.)
12,TAGGTGGACTTAATTTGTTGTAACCATTGGTAGGTGGACCCGGAGTCACCTAGTGCAG,5000 fluorescence intensity (a.u.)
13,GATAGATAATTAGCCATATAATAATGAATATCTGAGAAACCGGAGTCACCTAGTGCAG,17100 fluorescence intensity (a.u.)
14,CAGGTAATTAGGAGGGAATTCCTCCTTTACTTCGTCTAAACGGAGTCACCTAGTGCAG,14100 fluorescence intensity (a.u.)
15,AGCTGACTGGACCGCCACGTATGATCCAAATTCGCACTGACGGAGTCACCTAGTGCAG,3930 fluorescence intensity (a.u.)
16,TTAAACATTTGACGAACAATTAGTATAATATAATTTGAATCGGAGTCACCTAGTGCAG,5350 fluorescence intensity (a.u.)
17,GTAACAATTATTAAAATTCTTAATAAAAGTGCACTGGCATCGGAGTCACCTAGTGCAG,7060 fluorescence intensity (a.u.)
18,CTACAAAATTAAGCTGATAGCAACATCATTCACACATGGACGGAGTCACCTAGTGCAG,4120 fluorescence intensity (a.u.)
19,CCAATCTACAAATCATTGCAACCATCTCTCTCGTACTGTTCGGAGTCACCTAGTGCAG,3610 fluorescence intensity (a.u.)
20,TTCTAGATTATAATTAAGGTTTTAGCTTCTTATTTGGTATCGGAGTCACCTAGTGCAG,33300 fluorescence intensity (a.u.)
21,TCCAAACCAAATTGGGACCTTGTATGCACTGGTGATACGTCGGAGTCACCTAGTGCAG,6180 fluorescence intensity (a.u.)

row,Sequence,binding signal
1,AATCGGCGCAAATTGCTAATCATAATGTAATATACTCCCTCGGAGTCACCTAGTGCAG,18200 fluorescence intensity (a.u.)
2,GGCCAAATCTATTAAGATTGAGAGAAAACCAGTACAGGTGCGGAGTCACCTAGTGCAG,7220 fluorescence intensity (a.u.)
3,CTTACAGTCAAGACAGATAATATATGAGGCCCTTGGCTGGCGGAGTCACCTAGTGCAG,3520 fluorescence intensity (a.u.)
4,TAAAGCACAAAACTCTATATAATTGACCATTAAATTGTTGCGGAGTCACCTAGTGCAG,4660 fluorescence intensity (a.u.)
5,CTAAAATCACCCCTCGTGTGATAGATTAACCGAACAATGCCGGAGTCACCTAGTGCAG,7580 fluorescence intensity (a.u.)
6,CATAGATTTGTATATGGTTAGATTTGCTTCAAGATTCATGCGGAGTCACCTAGTGCAG,6850 fluorescence intensity (a.u.)
7,TCAGATTAAATAAAATAGATGATCTATATTAAGAATGCTGCGGAGTCACCTAGTGCAG,13100 fluorescence intensity (a.u.)
8,CATCCTAATTCCGATTGGGATTAATTTCGACAGCCCTGAACGGAGTCACCTAGTGCAG,7340 fluorescence intensity (a.u.)
9,ATCTCTGCTTAATTAATTTGTCCTCACTGAATTTGATTCTCGGAGTCACCTAGTGCAG,20000 fluorescence intensity (a.u.)
10,GATACTTGATTAAACCGAGGCGACGGGCGTGGAGCATGAGCGGAGTCACCTAGTGCAG,14200 fluorescence intensity (a.u.)
11,GTTGATTACGTTGAGGTTGGTGGCGGAGAAGGCAGGGGCGCGGAGTCACCTAGTGCAG,19800 fluorescence intensity (a.u.)
12,CTGACTGAAAATTACCTCATCAGTGCTGAGTCTAGATCATCGGAGTCACCTAGTGCAG,24800 fluorescence intensity (a.u.)
13,AACATGATTAATATTTTATGCGTGACTTGTCTTTTAAATTCGGAGTCACCTAGTGCAG,7820 fluorescence intensity (a.u.)
14,GTTAAATTTGAACTTGTATTTCATGAAACGATATATCATACGGAGTCACCTAGTGCAG,3920 fluorescence intensity (a.u.)
15,ACAGTAATTATCCGCTAACCATGGATTAATATACCTCGTTCGGAGTCACCTAGTGCAG,32200 fluorescence intensity (a.u.)
16,ACAATCAATCAAAGTTGTGTTTTGAAGACCGTGTCGTTATCGGAGTCACCTAGTGCAG,26400 fluorescence intensity (a.u.)
17,AGAAATTTGTCAACAGATTTATAGCAAAATCGATACCGAACGGAGTCACCTAGTGCAG,9390 fluorescence intensity (a.u.)
18,CGCTCAGTTAGGGACTAATTACTTAATTAGGAATTAATTACGGAGTCACCTAGTGCAG,10700 fluorescence intensity (a.u.)
19,ACAAATTATCTTATTACCGTATTACGAGTCAGTCTTTGAACGGAGTCACCTAGTGCAG,16200 fluorescence intensity (a.u.)
20,TATGTAATCTAAATTGTCATGCCCAATCTGATCTACTTCACGGAGTCACCTAGTGCAG,6860 fluorescence intensity (a.u.)
21,ATGGATTAATTAGGCTTAATAAATTCGTGTCACAGTTTACCGGAGTCACCTAGTGCAG,34600 fluorescence intensity (a.u.)
